Assay results reported in PubChem BioAssay AID743255 (National Center for Advancing Translational Sciences (NCATS), 2014).
Screen size: about 390,000 compounds; about 910 (0.23%) were called active. Inconclusive results (about 5%) are left out. Calls follow the shape of the dose curve; as a rule, active = well fitted inhibition curve with a large enough effect; inconclusive = small, poorly fitted or top-dose-only effect; inactive = no such curve, though single readings can be large or run the other way. The entries are a selection whose mix differs from that of the whole data set.

target: Ubiquitin carboxyl-terminal hydrolase 1 (Homo sapiens) (UniProt O94782); assay: Inhibitors of USP1/UAF1: Primary Screen; conditions: recombinant USP1/UAF1, Ub-Rhodamine cleavage fluorescence; activity change, negative = inhibition: at 57.1 µM (top of the series); also: nearly all actives have a fitted effect of over 60% in size
Procedure, shortened: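 USP1/UAF1 complex (1 nM) preincubated 15 min at room temperature with compound, then Ub-Rho substrate (150 nM final) added. Kinetic fluorescence at 480/540 nm over 6 reads at 60 s intervals; 50 mM HEPES pH 7.8, 0.5 mM EDTA, 0.1 mg/ml BSA, 1 mM TCEP, 0.01% Tween-20.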
% is scaled to controls: 0 for no effect and ±100 for the full control effect; potency is read from the fitted curve at half-maximal effect.

Chain of UniProt O94782 (O94782 whole entry, looked up): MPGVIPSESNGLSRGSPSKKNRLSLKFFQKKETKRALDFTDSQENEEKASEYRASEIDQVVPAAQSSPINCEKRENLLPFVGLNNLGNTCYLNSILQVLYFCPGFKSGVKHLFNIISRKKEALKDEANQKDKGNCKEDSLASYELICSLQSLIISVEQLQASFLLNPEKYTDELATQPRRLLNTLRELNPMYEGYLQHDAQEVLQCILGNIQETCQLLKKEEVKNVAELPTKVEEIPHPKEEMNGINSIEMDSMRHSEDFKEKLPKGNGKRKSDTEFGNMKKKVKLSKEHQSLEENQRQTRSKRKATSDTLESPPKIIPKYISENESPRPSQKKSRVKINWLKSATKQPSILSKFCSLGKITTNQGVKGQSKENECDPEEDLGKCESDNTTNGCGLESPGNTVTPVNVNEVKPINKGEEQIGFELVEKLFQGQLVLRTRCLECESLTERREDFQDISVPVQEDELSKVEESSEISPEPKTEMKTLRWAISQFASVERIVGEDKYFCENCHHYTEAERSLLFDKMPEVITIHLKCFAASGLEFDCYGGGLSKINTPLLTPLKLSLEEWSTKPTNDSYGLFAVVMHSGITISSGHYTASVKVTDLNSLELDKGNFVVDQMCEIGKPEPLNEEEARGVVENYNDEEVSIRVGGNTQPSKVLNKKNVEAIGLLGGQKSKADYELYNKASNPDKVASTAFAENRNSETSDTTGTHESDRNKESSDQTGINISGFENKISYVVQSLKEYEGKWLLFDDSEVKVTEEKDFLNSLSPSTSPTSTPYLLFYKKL

SMILES | activity change, negative = inhibition | Potency
Cc1ccc(C)c(Cn2nc(-c3cc(C)ccc3C)ccc2=O)c1 | inactive: -21.4% | –
Cn1c(=O)c(NCCc2ccccc2)c2c3c(cccc31)C(=O)c1ccccc1-2 | inactive: 74.4% | –
Cc1nnc(NC(=O)CSc2nccn2Cc2ccc(F)cc2)s1 | inactive: -21.2% | –
C/C=C(\C)C(=O)NCCN1C2=NC[C@H](Cc3ccccc3)N2C[C@@H]1Cc1ccc(OC)cc1 | inactive: -24.5% | –
Cc1ccc2c(c1)N(CC(=O)NCCc1ccc(Cl)cc1)C(=O)c1cccnc1O2 | inactive: -14.5% | –
CC(=O)Nc1ccc(NC(=O)CSc2nc3ccccc3nc2N2CCCCC2)cc1 | inactive: -20.1% | –
COC(C[C@@H]1O[C@@H]1C(=O)[C@@H](C)OCc1ccccc1)OC | inactive: -18.5% | –
COc1ccc(C2CC(=O)N3CN(C4CCCCC4)CSC3=C2C#N)c(OC)c1 (centres undefined) | – | active: 2.24 µM
CN1CCN(C(=O)C2=C[C@H](c3ccc(C(F)(F)F)cc3)C[C@H](OCCCCO)O2)CC1 | inactive: -20.6% | –
CC(C)NC(=O)CSc1cn(CC(=O)N2CCCCCC2)c2ccccc12 | inactive: -27% | –
CCOC(=O)/C(=C\c1ccc(N2CCC(c3ccccc3)=N2)cc1)C(C)=O | – | active: 28.2 µM
COC(=O)c1ccccc1NC(=O)Cn1nnc(-c2ccc(OC)cc2)n1 | inactive: -13.5% | –
CCn1c(C)c(C)c2cc(C(=O)N3CCN(c4ccccc4)CC3)ccc21 | inactive: -11.3% | –
COc1ccc([C@H]2C[C@@H](O)[C@H](n3cc(-c4ccc(F)cc4)nn3)CN2CC2CCCCC2)cc1 | inactive: -5.36% | –
OCC[C@H]1C[C@H](O)[C@@H](O)[C@@]2(OCc3ccccc32)O1 | inactive: -6.08% | –
OCC[C@H]1C[C@@H](O)[C@H](O)[C@]2(CCCO2)O1 | inactive: -8.97% | –
O=C(Nc1cccc(F)c1)C1CCCN(S(=O)(=O)c2cccc3cccnc23)C1 (centres undefined) | inactive: -23.6% | –
O=C(C[C@@H]1C/C=C/CC[C@@H](Cc2ccc(F)cc2)C(=O)O[C@@H](c2ccccc2)CNC1=O)NCCO | inactive: -26.3% | –
CCC(C)[C@H]1CNCCN1CCc1cccc(F)c1 (some centres undefined) | inactive: 17.8% | –
COc1ccc(NC(=O)C2=CC(c3ccco3)=NS(=O)(=O)N2C)cc1OC | inactive: -8.63% | –
CC(C)(C)S(=O)(=O)/C(C#N)=N/Nc1ccc(S(N)(=O)=O)cc1 | inactive: 13% | –
CCOC(=O)N1CCN(C(=O)/C(=C\c2cccs2)NC(=O)c2cccs2)CC1 | inactive: -18.2% | –

SMILES | activity change, negative = inhibition | Potency
Cc1cccc(NC(=O)c2sc3nc(-c4cc5ccc(O)cc5oc4=O)[nH]c(=O)c3c2C)c1 | inactive: 308% | –
COc1ccc(OC)c(/C=c2\sc3nc(-c4cccs4)nn3c2=O)c1 | – | active: 31.6 µM
O=S(=O)(c1ccc2nc(N3CCN(c4ccccc4F)CC3)ccc2c1)N1CCCCC1 | inactive: -21.4% | –
CC(=O)N(C1=C(Cl)C(=O)c2ccccc2C1=O)c1ccc(C(=O)O)cc1 | – | active: 14.1 µM
O=C1NC[C@H](c2ccccc2)OC(=O)[C@@H](Cc2ccc(F)cc2)C/C=C\C[C@H]1CC(=O)N(CCO)Cc1ccccc1 | inactive: -23.9% | –
CC(C)(CS(=O)(=O)[O-])NC(=O)CC[N+](C)(C)CCO | inactive: 35.1% | –
COc1ccc(-c2cc(C(F)(F)F)n3ncc(C(=O)NCC4CCCO4)c3n2)cc1OC (centres undefined) | inactive: 28.9% | –
N#Cc1c(C(F)(F)F)cc(-c2cccs2)nc1SCC(=O)Nc1cccc(C(F)(F)F)c1 | inactive: 56.4% | –
CC(=O)c1cccc(NC(=O)C2CCN(S(=O)(=O)c3ccccc3)CC2)c1 | inactive: -16.3% | –
CN(Cc1ccc(F)cc1)S(=O)(=O)c1nnc(NC(=O)c2ccccc2)s1 | inactive: -11.6% | –
CC(=O)Nc1ccc(S(=O)(=O)NC2=C(N3CCN(Cc4ccccc4)CC3)C(=O)c3ccccc3C2=O)cc1 | inactive: -15.6% | –
COc1ccc(S(=O)(=O)N(C)C[C@@H]2Oc3cc(Br)ccc3S(=O)(=O)N([C@H](C)CO)C[C@@H]2C)cc1 | inactive: -26.9% | –
Cc1csc(=Nc2c(C)n(C)n(-c3ccccc3)c2=O)n1Cc1ccccc1 | inactive: 0.322% | –
O=C(O)CCCNC(=O)/C=C/c1ccco1 | inactive: 36.6% | –
COc1ccc(OC)c(CNC(=O)CCn2c(=O)c3cccn3c3ccc(F)cc32)c1 | inactive: -8.43% | –
C[C@H]1NC(=O)[C@@]2(C)[C@@H](c3ccccc3)[C@H]3COc4ccccc4[C@@H]3N2C1=O | inactive: -28.2% | –
CCc1nc(Nc2ccc3nccnc3c2)c2oc3ccccc3c2n1 | inactive: 316% | –
CC(C)(C)OC(=O)C[C@H]1C/C=C\C[C@@H](CC(=O)N[C@@H](CO)Cc2ccccc2)C(=O)NC[C@H](c2ccccc2)OC1=O | inactive: -3.69% | –
C[C@H](CO)N1C[C@H](C)[C@H](CN(C)C(=O)c2cc(-c3ccccc3)on2)OCc2cnnn2CCCC1=O | inactive: -9.9% | –
CCC(C)NC(=O)c1ccc2nc(Cc3ccc(OC)cc3)oc2c1 (centres undefined) | inactive: -13.2% | –
Cc1ccc(C(=O)NNc2cc(N3CCCC3)nc(N3CCCC3)n2)cc1 | – | active: 14.1 µM
O=C(NCc1ccc(OC(F)(F)F)cc1)c1cccc2c1C(=O)c1ccc(N3CCCCC3)cc1S2(=O)=O | – | active: 25.1 µM
